# Measurements reported in the supplement of paper PMC8728848.
# The list shows a part of the results.
# B1: LBL-152 (Laetiporus bicolor), B0D650 (protein)
# chain: MSNEYNPPLGIAFRLCGLASDRVLFSRVSPSPEVFHHPKSEVYPDQWFVAIPGSGQNAGCYAIKSKNTGKVLFSRMSPDPRVGHIDGDGKYPDNWFKFEAGSGKYAGYFRLRAVASDTVLVSRTSTGTDTQVINYPATSAKYDDQYFTILFDHHHHHH
# Tests used:
# Assay in all cases: glycan array binding signal (z-score within array); higher = stronger binding
# Settings in all cases: glycan notation: IUPAC condensed, linker removed
# GalNAc(b1-4)GlcNAc = molecular target: GalNAc(b1-4)GlcNAc
# Method in brief: (§1)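 Arrays were curated from the Consortium for Functional Glycomics database, 3228 in total, and kept only where the protein sequence was available. Binding is expressed as a within-array Z-score. This score was averaged across arrays of the same protein sequence at different concentrations or buffers and across linkers, and negative values can be read as non-binding.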
# [1] = molecular target: GalNAc(b1-4)GlcNAc(b1-2)Man
# Method in brief: as §1
# [2] = molecular target: GalNAc(b1-4)GlcNAc(b1-2)Man(a1-3)[GalNAc(b1-4)GlcNAc(b1-2)Man(a1-6)]Man(b1-4)GlcNAc(b1-4)GlcNAc
# Method in brief: as §1
# [3] = molecular target: GalNAc(b1-4)GlcNAc(b1-3)GalNAc(b1-4)GlcNAc
# Method in brief: as §1
# GalNAc(b1-4)GlcNAc6S = molecular target: GalNAc(b1-4)GlcNAc6S
# Method in brief: as §1
# GalNAc(b1-6)GalNAc = molecular target: GalNAc(b1-6)GalNAc
# Method in brief: as §1
# GalNAc3S(b1-4)GlcNAc = molecular target: GalNAc3S(b1-4)GlcNAc
# Method in brief: as §1
# GalNAc3S(b1-4)GlcNAc3S = molecular target: GalNAc3S(b1-4)GlcNAc3S
# Method in brief: as §1
# [4] = molecular target: GalNAc3S(b1-4)[Fuc(a1-3)]GlcNAc
# Method in brief: as §1
# GalNAc4S6S(b1-4)GlcNAc = molecular target: GalNAc4S6S(b1-4)GlcNAc
# Method in brief: as §1
# GalNAc6S(b1-4)GlcNAc = molecular target: GalNAc6S(b1-4)GlcNAc
# Method in brief: as §1
# Glc(a1-4)Glc = molecular target: Glc(a1-4)Glc
# Method in brief: as §1
# [5] = molecular target: Glc(a1-4)Glc(a1-4)Glc(a1-4)Glc
# Method in brief: as §1
# Glc(a1-6)Glc(a1-6)Glc = molecular target: Glc(a1-6)Glc(a1-6)Glc
# Method in brief: as §1
# [6] = molecular target: Glc(a1-6)Glc(a1-6)Glc(a1-6)Glc
# Method in brief: as §1
# Glc(b1-4)Glc = molecular target: Glc(b1-4)Glc
# Method in brief: as §1
# Glc(b1-6)Glc = molecular target: Glc(b1-6)Glc
# Method in brief: as §1
# GlcA(b1-3)Gal = molecular target: GlcA(b1-3)Gal
# Method in brief: as §1
# GlcA(b1-3)GlcNAc = molecular target: GlcA(b1-3)GlcNAc
# Method in brief: as §1
# GlcA(b1-6)Gal = molecular target: GlcA(b1-6)Gal
# Method in brief: as §1
# [7] = molecular target: GlcA3S(b1-3)Gal(b1-4)GlcNAc(b1-2)Man
# Method in brief: as §1
# [8] = molecular target: GlcA3S(b1-3)Gal(b1-4)GlcNAc(b1-3)Gal(b1-4)Glc
# Method in brief: as §1
# [9] = molecular target: GlcNAc(a1-3)Gal(b1-4)GlcNAc
# Method in brief: as §1
# [10] = molecular target: GlcNAc(a1-4)Gal(b1-3)GlcNAc
# Method in brief: as §1
# [11] = molecular target: GlcNAc(a1-4)Gal(b1-4)GalNAc
# Method in brief: as §1
# [12] = molecular target: GlcNAc(a1-4)Gal(b1-4)GlcNAc
# Method in brief: as §1
# [13] = molecular target: GlcNAc(a1-4)Gal(b1-4)GlcNAc(b1-3)Gal(b1-4)Glc
# Method in brief: as §1
# [14] = molecular target: GlcNAc(a1-4)Gal(b1-4)GlcNAc(b1-3)Gal(b1-4)GlcNAc
# Method in brief: as §1
# [15] = molecular target: GlcNAc(a1-4)Gal(b1-4)GlcNAc(b1-3)Gal(b1-4)GlcNAc(b1-3)Gal(b1-4)GlcNAc
# Method in brief: as §1
# [16] = molecular target: GlcNAc(a1-4)Gal(b1-4)GlcNAc(b1-3)Gal(b1-4)[Fuc(a1-3)]GlcNAc(b1-3)Gal(b1-4)[Fuc(a1-3)]GlcNAc
# Method in brief: as §1
# [17] = molecular target: GlcNAc(a1-6)Gal(b1-4)GlcNAc
# Method in brief: as §1
# [18] = molecular target: GlcNAc(b1-2)Gal(b1-3)GalNAc
# Method in brief: as §1
# [19] = molecular target: GlcNAc(b1-2)Man(a1-3)[GlcNAc(b1-2)Man(a1-6)]Man(b1-4)GlcNAc(b1-4)GlcNAc
# Method in brief: as §1
# [20] = molecular target: GlcNAc(b1-2)Man(a1-3)[GlcNAc(b1-2)Man(a1-6)]Man(b1-4)GlcNAc(b1-4)[Fuc(a1-6)]GlcNAc
# Method in brief: as §1
# [21] = molecular target: GlcNAc(b1-2)Man(a1-3)[GlcNAc(b1-4)][GlcNAc(b1-2)Man(a1-6)]Man(b1-4)GlcNAc(b1-4)GlcNAc
# Method in brief: as §1
# [22] = molecular target: GlcNAc(b1-2)Man(a1-3)[GlcNAc(b1-4)][GlcNAc(b1-2)Man(a1-6)]Man(b1-4)GlcNAc(b1-4)[Fuc(a1-6)]GlcNAc
# Method in brief: as §1
# [23] = molecular target: GlcNAc(b1-2)[GlcNAc(b1-4)]Man(a1-3)[GlcNAc(b1-2)Man(a1-6)]Man(b1-4)GlcNAc(b1-4)GlcNAc
# Method in brief: as §1
# [24] = molecular target: GlcNAc(b1-2)[GlcNAc(b1-4)]Man(a1-3)[GlcNAc(b1-4)][GlcNAc(b1-2)Man(a1-6)]Man(b1-4)GlcNAc(b1-4)GlcNAc
# Method in brief: as §1
# [25] = molecular target: GlcNAc(b1-2)[GlcNAc(b1-4)]Man(a1-3)[GlcNAc(b1-4)][GlcNAc(b1-2)[GlcNAc(b1-6)]Man(a1-6)]Man(b1-4)GlcNAc(b1-4)GlcNAc
# Method in brief: as §1
# [26] = molecular target: GlcNAc(b1-2)[GlcNAc(b1-4)]Man(a1-3)[GlcNAc(b1-4)][GlcNAc(b1-2)[GlcNAc(b1-6)]Man(a1-6)]Man(b1-4)GlcNAc(b1-4)[Fuc(a1-6)]GlcNAc
# Method in brief: as §1
# [27] = molecular target: GlcNAc(b1-2)[GlcNAc(b1-6)]Man(a1-6)[GlcNAc(b1-2)Man(a1-3)]Man(b1-4)GlcNAc(b1-4)GlcNAc
# Method in brief: as §1
# [28] = molecular target: GlcNAc(b1-2)[GlcNAc(b1-6)]Man(a1-6)[GlcNAc(b1-2)Man(a1-3)]Man(b1-4)GlcNAc(b1-4)[Fuc(a1-6)]GlcNAc
# Method in brief: as §1
# [29] = molecular target: GlcNAc(b1-2)[GlcNAc(b1-6)]Man(a1-6)[GlcNAc(b1-4)][GlcNAc(b1-2)Man(a1-3)]Man(b1-4)GlcNAc(b1-4)GlcNAc
# Method in brief: as §1
# GlcNAc(b1-3)Fuc = molecular target: GlcNAc(b1-3)Fuc
# Method in brief: as §1
# GlcNAc(b1-3)Gal = molecular target: GlcNAc(b1-3)Gal
# Method in brief: as §1
binder,measurement,setting,value
B1,glycan array binding signal (z-score),GalNAc(b1-4)GlcNAc,-0.134
same,glycan array binding signal (z-score),[1],-0.149
same,glycan array binding signal (z-score),[2],-0.147
same,glycan array binding signal (z-score),[3],-0.14
same,glycan array binding signal (z-score),GalNAc(b1-4)GlcNAc6S,-0.154
same,glycan array binding signal (z-score),GalNAc(b1-6)GalNAc,-0.155
same,glycan array binding signal (z-score),GalNAc3S(b1-4)GlcNAc,-0.157
same,glycan array binding signal (z-score),GalNAc3S(b1-4)GlcNAc3S,-0.163
same,glycan array binding signal (z-score),[4],-0.15
same,glycan array binding signal (z-score),GalNAc4S6S(b1-4)GlcNAc,-0.15
same,glycan array binding signal (z-score),GalNAc6S(b1-4)GlcNAc,-0.16
same,glycan array binding signal (z-score),Glc(a1-4)Glc,-0.157
same,glycan array binding signal (z-score),[5],-0.155
same,glycan array binding signal (z-score),Glc(a1-6)Glc(a1-6)Glc,-0.156
same,glycan array binding signal (z-score),[6],-0.16
same,glycan array binding signal (z-score),Glc(b1-4)Glc,-0.149
same,glycan array binding signal (z-score),Glc(b1-6)Glc,-0.16
same,glycan array binding signal (z-score),GlcA(b1-3)Gal,-0.155
same,glycan array binding signal (z-score),GlcA(b1-3)GlcNAc,-0.15
same,glycan array binding signal (z-score),GlcA(b1-6)Gal,-0.152
same,glycan array binding signal (z-score),[7],-0.147
same,glycan array binding signal (z-score),[8],-0.157
same,glycan array binding signal (z-score),[9],-0.147
same,glycan array binding signal (z-score),[10],-0.146
same,glycan array binding signal (z-score),[11],-0.147
same,glycan array binding signal (z-score),[12],-0.157
same,glycan array binding signal (z-score),[13],-0.155
same,glycan array binding signal (z-score),[14],-0.157
same,glycan array binding signal (z-score),[15],-0.153
same,glycan array binding signal (z-score),[16],-0.147
same,glycan array binding signal (z-score),[17],-0.156
same,glycan array binding signal (z-score),[18],-0.152
same,glycan array binding signal (z-score),[19],-0.156
same,glycan array binding signal (z-score),[20],-0.16
same,glycan array binding signal (z-score),[21],-0.153
same,glycan array binding signal (z-score),[22],-0.147
same,glycan array binding signal (z-score),[23],-0.159
same,glycan array binding signal (z-score),[24],-0.158
same,glycan array binding signal (z-score),[25],-0.153
same,glycan array binding signal (z-score),[26],-0.149
same,glycan array binding signal (z-score),[27],-0.153
same,glycan array binding signal (z-score),[28],-0.147
same,glycan array binding signal (z-score),[29],-0.156
same,glycan array binding signal (z-score),GlcNAc(b1-3)Fuc,-0.143
same,glycan array binding signal (z-score),GlcNAc(b1-3)Gal,-0.16
